What was measured:
[1] = test system: pErbB3 and pAKT levels in OVCAR8 and OVCAR8-HER2 cells; assay: Inhibition of HRG-induced pErbB3 and pAKT signaling by H3×B1D2 in OVCAR8 and OVCAR8-HER2 cells (ELISA); format: cell-based; conditions: ErbB2-transfected OVCAR8-HER2 vs OVCAR8 cells; 5 nM HRG stimulation, ten-minute lysis
Method: (§1) For stimulation of the cells, the cells are seeded in duplicate wells with 1000 μl complete media at 150,000 cells per well in 12 well tissue culture plates (for 96 half well ELISA) or in duplicate plate of 100 μl complete media at 20,000 cells per well in 96 well tissue culture plates (for 384 well ELISA). These cells are incubated overnight in a humidified atmosphere of 5% CO2, 95% air and 37 degrees Celsius. Cells are then switched to serum free media: RPMI-1640 media (Gibco) supplemented with, 2 mM L-glutamine (Gibco) and units/mL Pen-Strep (Gibco). Starved cells are incubated in a humidified atmosphere of 5% CO2, 95% air and 37 degrees Celsius for 20-24 hours prior to stimulation. For dose-time matrix studies, cells are stimulated with ligand (HRG) at 0, 1, 2, 3, 4, 5, 7, 10, 20, 30, 60 and 120 minutes. Following stimulation with six different concentrations of HRG (0.098 nM-100 nM) for each time course, cells are placed on ice, washed with cold PBS, then lysed in 200 μl for 12 well plates and […]
(§2) Levels of protein phosphorylation in the stimulated cells are measured by ELISA. ErbB1, ErbB2, and ErbB3 are measured using R&D Systems Duoset IC kits (ErbB1 DYC1095-E, ErbB2 DYC1768-E, ErbB3 DYC1769-E). […] All ELISAs are visualized with SuperSignal ELISA Pico Chemiluminescent Substrate (Pierce, Catalog #37069) and luminescent signal is measured using a luminometer. […]

[2] = test system: pErbB3 and pAKT levels in ADRr cells; assay: Inhibition of HRG-induced pErbB3 and pAKT signaling by H3×B1D2 in ADRr cells (ELISA); format: cell-based; conditions: ADRr cells (low ErbB2); 5 nM HRG stimulation, ten-minute lysis
Method: as §1, §2

[3] = test system: BT474-M3 xenograft tumor; assay: Xenograft tumor model treated with H3×B1D2: BT474-M3; format: in vivo, nu/nu mice; conditions: 600 μg/injection every 3 days, negative RGR = tumor regression
Method: (§3) To characterize the in vivo response of tumors to H3×B1D2 treatment, a panel of tumor cell lines was tested in a xenograft tumor model such as described in Example 1. In the xenograft tumor models, mice (nu/nu mice: 4-5 week old female mice, athymic, nude, outbred background; Albino; purchased from Charles River Labs, Wilmington, Mass.) are implanted in the flank with 5×10^6−2×10^7 cells/mouse (depending on cell line) in 200 μl via subcutaneous injection. Mice are monitored for initial tumor growth. Tumors are allowed to grow for several days until the mean tumor volume is approximately 150-200 mm^3. The tumor volume is calculated as V=(π/6 (L×W^2). The mice are treated with the H3×B1D2 antibody at a dosage of 600 μg/injection every 3 days (q3d). Control mice are treated with phosphate buffered saline (PBS) or with wild-type HSA (human serum albumin). Tumor volume is measured for 40-80 days.
(§4) The control and treatment data from the in vivo xenograft experiments was fitted to exponential growth curves, using the following formula: V=Vo*exp(k*t)
(§5) wherein V is the tumor volume, Vo is the tumor volume at time zero, k is the exponential growth rate and t is the time. The potency of H3×B1D2 in inhibiting tumor growth was represented as the ratio of treatment and control exponential growth rates for each cell line tested. […]

[4] = test system: IGROV1 xenograft tumor; assay: Xenograft tumor model treated with H3×B1D2: IGROV1; format: in vivo, nu/nu mice; conditions: 600 μg/injection every 3 days, RGR of 1 = no effect
Method: as §3, §4, §5

[5] = test system: LS180 xenograft tumor; assay: Xenograft tumor model treated with H3×B1D2: LS180; format: in vivo, nu/nu mice; conditions: 600 μg/injection every 3 days, RGR of 1 = no effect
Method: as §3, §4, §5

[6] = biological target: ErbB2 (Homo sapiens, UniProt P04626); assay: H3×B1D2: on-rate and off-rate of B1D2 single chain arm by BIACore and KinExA (Tables 16a, 16b); format: binding
Text: (§6) Next, a computational representation of the mechanism by which H3×B1D2 inhibits HRG-dependent signaling of the ErbB pathway was developed. The computational representation of the inhibitor was constructed using mass-action reaction equations that describe the binding of inhibitor to ErbB2 and ErbB3 and subsequent inhibition of HRG-induced signaling. Parameters for the binding events were obtained by a combination of direct measurement (using techniques widely known in the art) and computational training of the model to match data for the inhibition of HRG-induced pErbB3 in cells by H3×B1D2. In particular, the on-rate and off-rate for binding of the H3 single chain arm of the bispecific antibody to ErbB3 and the on-rate and off-rate for the binding of the B1D2 single chain arm of the bispecific antibody to ErbB2 were experimentally determined by standard BIACore and KinExA technology. Reactions and parameters for the computational model of H3×B1D2 appear in Tables 16a and 16b.

[7] = biological target: ErbB3 (Homo sapiens, UniProt P21860); assay: H3×B1D2: on-rate and off-rate of H3 single chain arm by BIACore and KinExA (Tables 16a, 16b); format: binding
Text: as §6

| h3xb1d2_kr1: reverse parameter, E2 + (H3 x B1D2) <-> E2:(H3 x B1D2) ([6]; off-rate of B1D2 arm from ErbB2) | h3xb1d2_kf1: forward parameter, E2 + (H3 x B1D2) <-> E2:(H3 x B1D2) ([6]; on-rate of B1D2 arm to ErbB2) | h3xb1d2_kr2: reverse parameter, (H3 x B1D2) + E3 <-> (H3 x B1D2):E3 ([7]; off-rate of H3 arm from ErbB3) | h3xb1d2_kf2: forward parameter, (H3 x B1D2) + E3 <-> (H3 x B1D2):E3 ([7]; on-rate of H3 arm to ErbB3) | Molecule | inhibition percentage of pErbB3 and pAKT, OVCAR8-HER2 compared to OVCAR8 [1] | percentage of inhibition of pErbB3 and pAKT [2] | relative growth rate (RGR = kH3×B1D2/kcontrol) [3] | relative growth rate (RGR = kH3×B1D2/kcontrol) [4] | relative growth rate (RGR = kH3×B1D2/kcontrol) [5] |
| --- | --- | --- | --- | --- | --- | --- | --- | --- | --- |
| – | – | – | – | H3×B1D2: bispecific antibody, SEQ ID NO: 41: anti-ErbB3 single chain antibody H3 linked to anti-ErbB2 single chain antibody B1D2 (protein) QVQLQESGGGLVKPGGSLRLSCAASGFTFSSYWMSWVRQAPGKGLEWVANINRDGSASYYVDSVKGRFTISRDDAKNSLYLQMNSLRAEDTAVYYCARDRGVGYFDLWGRGTLVTVSSASTGGGGSGGGGSGGGGSQSALTQPASVSGSPGQSITISCTGTSSDVGGYNFVSWYQQHPGKAPKLMIYDVSDRPSGVSDRFSGSKSGNTASLIISGLQADDEADYYCSSYGSSSTHVIFGGGTKVTVLGAAS[about 600 residues skipped]AAALQVQLVQSGAEVKKPGESLKISCKGSGYSFTSYWIAWVRQMPGKGLEYMGLIYPGDSDTKYSPSFQGQVTISVDKSVSTAYLQWSSLKPSDSAVYFCARHDVGYCTDRTCAKWPEWLGVWGQGTLVTVSSGGGGSSGGGSGGGGSQSVLTQPPSVSAAPGQKVTISCSGSSSNIGNNYVSWYQQLPGTAPKLLIYDHTNRPAGVPDRFSGSKSGTSASLAISGFRSEDEADYYCASWDYTLSGWVFGGGTKLTVLG | greater inhibition percentage | poor percentage of inhibition | negative | greater than 1 | greater than 1 |
| 0.00015 s⁻¹ | 3.13E+04 (mol/L)-1sec-1 | 0.022 s⁻¹ | 3.50E+05 (mol/L)-1sec-1 | H3 x B1D2 (protein) QVQLQESGGGLVKPGGSLRLSCAASGFTFSSYWMSWVRQAPGKGLEWVANINRDGSASYYVDSVKGRFTISRDDAKNSLYLQMNSLRAEDTAVYYCARDRGVGYFDLWGRGTLVTVSSASTGGGGSGGGGSGGGGSQSALTQPASVSGSPGQSITISCTGTSSDVGGYNFVSWYQQHPGKAPKLMIYDVSDRPSGVSDRFSGSKSGNTASLIISGLQADDEADYYCSSYGSSSTHVIFGGGTKVTVLGAAS[about 600 residues skipped]AAALQVQLVQSGAEVKKPGESLKISCKGSGYSFTSYWIAWVRQMPGKGLEYMGLIYPGDSDTKYSPSFQGQVTISVDKSVSTAYLQWSSLKPSDSAVYFCARHDVGYCTDRTCAKWPEWLGVWGQGTLVTVSSGGGGSSGGGSGGGGSQSVLTQPPSVSAAPGQKVTISCSGSSSNIGNNYVSWYQQLPGTAPKLLIYDHTNRPAGVPDRFSGSKSGTSASLAISGFRSEDEADYYCASWDYTLSGWVFGGGTKLTVLG | – | – | – | – | – |

From patent US20110027291A1, “METHODS, SYSTEMS AND PRODUCTS FOR PREDICTING RESPONSE OF TUMOR CELLS TO A THERAPEUTIC AGENT AND TREATING A PATIENT ACCORDING TO THE PREDICTED RESPONSE” (MERRIMACK PHARMACEUTICALS, INC., priority 2008, published 2011)
